Experimental data published in the supplement of paper PMC8728848.
Some of the results follow.

Experiments:
Assay in all cases: glycan array binding signal (z-score within array); higher = stronger binding
Conditions in all cases: glycan notation: IUPAC condensed, linker removed
[1] = biological target: Gal(b1-3)[Fuc(a1-4)]GlcNAc(b1-3)Gal(b1-4)GlcNAc
Summary of the method: (§1)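 Arrays were curated from the Consortium for Functional Glycomics database, 3228 in total, and kept only where the protein sequence was available. Binding is expressed as a within-array Z-score. This score was averaged across arrays of the same protein sequence at different concentrations or buffers and across linkers, and negative values can be read as non-binding.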

[2] = biological target: Gal(b1-3)[Fuc(a1-4)]GlcNAc(b1-3)Gal(b1-4)[Fuc(a1-3)]GlcNAc
Summary of the method: as §1

[3] = biological target: Gal(b1-3)[GlcNAc(b1-6)]GalNAc
Summary of the method: as §1

[4] = biological target: Gal(b1-3)[Neu5Ac(a2-6)]GalNAc
Summary of the method: as §1

[5] = biological target: Gal(b1-3)[Neu5Ac(a2-6)]GlcNAc(b1-6)Gal(b1-4)Glc
Summary of the method: as §1

[6] = biological target: Gal(b1-3)[Neu5Ac(b2-6)]GalNAc
Summary of the method: as §1

Gal(b1-4)Gal = biological target: Gal(b1-4)Gal
Summary of the method: as §1

[7] = biological target: Gal(b1-4)GalNAc(a1-3)[Fuc(a1-2)]Gal(b1-4)GlcNAc
Summary of the method: as §1

[8] = biological target: Gal(b1-4)GalNAc(b1-3)[Fuc(a1-2)]Gal(b1-4)GlcNAc
Summary of the method: as §1

Gal(b1-4)Glc = biological target: Gal(b1-4)Glc
Summary of the method: as §1

Gal(b1-4)Glc6S = biological target: Gal(b1-4)Glc6S
Summary of the method: as §1

Gal(b1-4)GlcNAc = biological target: Gal(b1-4)GlcNAc
Summary of the method: as §1

[9] = biological target: Gal(b1-4)GlcNAc(a1-6)Gal(b1-4)GlcNAc
Summary of the method: as §1

Gal(b1-4)GlcNAc(b1-2)Man = biological target: Gal(b1-4)GlcNAc(b1-2)Man
Summary of the method: as §1

[10] = biological target: Gal(b1-4)GlcNAc(b1-2)Man(a1-3)Man(b1-4)GlcNAc(b1-4)GlcNAc
Summary of the method: as §1

[11] = biological target: Gal(b1-4)GlcNAc(b1-2)Man(a1-3)[Gal(b1-4)GlcNAc(b1-2)Man(a1-6)]Man(b1-4)GlcNAc(b1-4)GlcNAc
Summary of the method: as §1

[12] = biological target: Gal(b1-4)GlcNAc(b1-2)Man(a1-3)[Gal(b1-4)GlcNAc(b1-2)Man(a1-6)]Man(b1-4)GlcNAc(b1-4)[Fuc(a1-6)]GlcNAc
Summary of the method: as §1

[13] = biological target: Gal(b1-4)GlcNAc(b1-2)Man(a1-3)[Gal(b1-4)GlcNAc(b1-2)][GlcNAc(b1-4)]Man(b1-4)GlcNAc(b1-4)GlcNAc
Summary of the method: as §1

[14] = biological target: Gal(b1-4)GlcNAc(b1-2)Man(a1-3)[GlcNAc(b1-2)Man(a1-6)]Man(b1-4)GlcNAc(b1-4)GlcNAc
Summary of the method: as §1

[15] = biological target: Gal(b1-4)GlcNAc(b1-2)Man(a1-3)[Man(a1-6)]Man(b1-4)GlcNAc(b1-4)GlcNAc
Summary of the method: as §1

[16] = biological target: Gal(b1-4)GlcNAc(b1-2)Man(a1-6)Man(b1-4)GlcNAc(b1-4)GlcNAc
Summary of the method: as §1

[17] = biological target: Gal(b1-4)GlcNAc(b1-2)Man(a1-6)[GlcNAc(b1-2)Man(a1-3)]Man(b1-4)GlcNAc(b1-4)GlcNAc
Summary of the method: as §1

[18] = biological target: Gal(b1-4)GlcNAc(b1-2)Man(a1-6)[Man(a1-3)]Man(b1-4)GlcNAc(b1-4)GlcNAc
Summary of the method: as §1

[19] = biological target: Gal(b1-4)GlcNAc(b1-2)[Gal(b1-4)GlcNAc(b1-4)]Man(a1-3)[Gal(b1-4)GlcNAc(b1-2)Man(a1-6)]Man(b1-4)GlcNAc(b1-4)GlcNAc
Summary of the method: as §1

[20] = biological target: Gal(b1-4)GlcNAc(b1-2)[Gal(b1-4)GlcNAc(b1-4)]Man(a1-3)[Gal(b1-4)GlcNAc(b1-2)[Gal(b1-4)GlcNAc(b1-6)]Man(a1-6)]Man(b1-4)GlcNAc(b1-4)GlcNAc
Summary of the method: as §1

[21] = biological target: Gal(b1-4)GlcNAc(b1-2)[Gal(b1-4)GlcNAc(b1-4)]Man(a1-3)[GlcNAc(b1-4)][Gal(b1-4)GlcNAc(b1-2)Man(a1-6)]Man(b1-4)GlcNAc(b1-4)GlcNAc
Summary of the method: as §1

[22] = biological target: Gal(b1-4)GlcNAc(b1-2)[Gal(b1-4)GlcNAc(b1-4)]Man(a1-3)[GlcNAc(b1-4)][Gal(b1-4)GlcNAc(b1-2)[Gal(b1-4)GlcNAc(b1-6)]Man(a1-6)]Man(b1-4)GlcNAc(b1-4)GlcNAc
Summary of the method: as §1

[23] = biological target: Gal(b1-4)GlcNAc(b1-2)[Gal(b1-4)GlcNAc(b1-6)]Man(a1-6)[Gal(b1-4)GlcNAc(b1-2)Man(a1-3)]Man(b1-4)GlcNAc(b1-4)GlcNAc
Summary of the method: as §1

[24] = biological target: Gal(b1-4)GlcNAc(b1-2)[Gal(b1-4)GlcNAc(b1-6)]Man(a1-6)[GlcNAc(b1-4)][Gal(b1-4)GlcNAc(b1-2)Man(a1-3)]Man(b1-4)GlcNAc(b1-4)GlcNAc
Summary of the method: as §1

[25] = biological target: Gal(b1-4)GlcNAc(b1-3)Gal(b1-3)GlcNAc
Summary of the method: as §1

[26] = biological target: Gal(b1-4)GlcNAc(b1-3)Gal(b1-4)Glc
Summary of the method: as §1

[27] = biological target: Gal(b1-4)GlcNAc(b1-3)Gal(b1-4)GlcNAc
Summary of the method: as §1

[28] = biological target: Gal(b1-4)GlcNAc(b1-3)Gal(b1-4)GlcNAc(b1-3)Gal(b1-4)GlcNAc
Summary of the method: as §1

[29] = biological target: Gal(b1-4)GlcNAc(b1-3)Gal(b1-4)[Fuc(a1-3)GlcNAc(b1-6)]Gal(b1-4)Glc
Summary of the method: as §1

[30] = biological target: Gal(b1-4)GlcNAc(b1-3)Gal(b1-4)[Fuc(a1-3)]GlcNAc(b1-3)Gal(b1-4)[Fuc(a1-3)]GlcNAc
Summary of the method: as §1

[31] = biological target: Gal(b1-4)GlcNAc(b1-3)GalNAc
Summary of the method: as §1

[32] = biological target: Gal(b1-4)GlcNAc(b1-3)[Gal(b1-4)GlcNAc(b1-6)]Gal(b1-4)GlcNAc
Summary of the method: as §1

[33] = biological target: Gal(b1-4)GlcNAc(b1-3)[Gal(b1-4)GlcNAc(b1-6)]GalNAc
Summary of the method: as §1

[34] = biological target: Gal(b1-4)GlcNAc(b1-3)[GlcNAc(b1-6)]Gal(b1-4)GlcNAc
Summary of the method: as §1

[35] = biological target: Gal(b1-4)GlcNAc(b1-6)Gal(b1-4)GlcNAc
Summary of the method: as §1

[36] = biological target: Gal(b1-4)GlcNAc(b1-6)GalNAc
Summary of the method: as §1

[37] = biological target: Gal(b1-4)GlcNAc(b1-6)[Gal(b1-3)]GalNAc
Summary of the method: as §1

Gal(b1-6)Gal = biological target: Gal(b1-6)Gal
Summary of the method: as §1

Gal3S(b1-3)GalNAc = biological target: Gal3S(b1-3)GalNAc
Summary of the method: as §1

Gal3S(b1-3)GlcNAc = biological target: Gal3S(b1-3)GlcNAc
Summary of the method: as §1

B1: SefD (Salmonella enterica), Q9L6K6 (protein)
chain: GAYIIRGQNNSAHKLRIRIGGEDWQPDNSGIGMVSHSDFTNEFNIYYFGNGDIPVDTYLISIYATEIEL
[1]
  glycan array binding signal (z-score): -0.466
[2]
  glycan array binding signal (z-score): -0.408
[3]
  glycan array binding signal (z-score): -0.291
[4]
  glycan array binding signal (z-score): -0.336
[5]
  glycan array binding signal (z-score): -0.532
[6]
  glycan array binding signal (z-score): 0.319
Gal(b1-4)Gal
  glycan array binding signal (z-score): 0.157
[7]
  glycan array binding signal (z-score): -0.1
[8]
  glycan array binding signal (z-score): -0.425
Gal(b1-4)Glc
  glycan array binding signal (z-score): -0.272
Gal(b1-4)Glc6S
  glycan array binding signal (z-score): -0.395
Gal(b1-4)GlcNAc
  glycan array binding signal (z-score): 0.971
[9]
  glycan array binding signal (z-score): -0.274
Gal(b1-4)GlcNAc(b1-2)Man
  glycan array binding signal (z-score): -0.245
[10]
  glycan array binding signal (z-score): -0.377
[11]
  glycan array binding signal (z-score): -0.456
[12]
  glycan array binding signal (z-score): -0.254
[13]
  glycan array binding signal (z-score): 0.247
[14]
  glycan array binding signal (z-score): -0.3
[15]
  glycan array binding signal (z-score): -0.377
[16]
  glycan array binding signal (z-score): -0.044
[17]
  glycan array binding signal (z-score): -0.388
[18]
  glycan array binding signal (z-score): 0.938
[19]
  glycan array binding signal (z-score): -0.337
[20]
  glycan array binding signal (z-score): 0.553
[21]
  glycan array binding signal (z-score): -0.137
[22]
  glycan array binding signal (z-score): -0.481
[23]
  glycan array binding signal (z-score): 0.127
[24]
  glycan array binding signal (z-score): -0.282
[25]
  glycan array binding signal (z-score): -0.372
[26]
  glycan array binding signal (z-score): -0.19
[27]
  glycan array binding signal (z-score): 0.274
[28]
  glycan array binding signal (z-score): -0.505
[29]
  glycan array binding signal (z-score): -0.433
[30]
  glycan array binding signal (z-score): 0.134
[31]
  glycan array binding signal (z-score): -0.392
[32]
  glycan array binding signal (z-score): -0.614
[33]
  glycan array binding signal (z-score): -0.441
[34]
  glycan array binding signal (z-score): -0.538
[35]
  glycan array binding signal (z-score): -0.161
[36]
  glycan array binding signal (z-score): -0.074
[37]
  glycan array binding signal (z-score): -0.044
Gal(b1-6)Gal
  glycan array binding signal (z-score): -0.363
Gal3S(b1-3)GalNAc
  glycan array binding signal (z-score): -0.236
Gal3S(b1-3)GlcNAc
  glycan array binding signal (z-score): -0.133
